The other results are listed elsewhere or left out. Repeats are few or missing, and single values can be far off.
These compounds were tested on C32 (assay: cell count relative to DMSO control; melanoma cells; higher = more viable cells). Conditions: library dose: low library concentration; 72 h.
Work on C[C@@H](Oc1cc(-c2cnn(C3CCNCC3)c2)cnc1N)c1c(Cl)ccc(F)c1Cl [Crizotinib] + CCCCCCCCCCCC1=C(O)C(=O)C=C(O)C1=O [Embelin] (first compound 0.2 µM, partner dose 1.2 µM) yielded a cell count of 109%. CN1CCN(c2ccc3nc(-c4c(N)c5c(F)cccc5[nH]c4=O)[nH]c3c2)CC1 [Dovitinib] + CCCCCCCCCCCC1=C(O)C(=O)C=C(O)C1=O [Embelin] (first compound 0.1 µM, partner dose 1.2 µM) gave a cell count of 90.3%. In the case of CN1CCN(c2ccc3nc(-c4c(N)c5c(F)cccc5[nH]c4=O)[nH]c3c2)CC1 [Dovitinib] + CCN(CC)CCCCNc1ncc2cc(-c3cc(OC)cc(OC)c3)c(NC(=O)NC(C)(C)C)nc2n1 [PD173074] (first compound 0.1 µM, partner dose 0.1 µM), the cell count is reported as 95.4%. CS(=O)(=O)CCNCc1ccc(-c2ccc3ncnc(Nc4ccc(OCc5cccc(F)c5)c(Cl)c4)c3c2)o1 [lapatinib] + COC(=O)c1sccc1S(=O)(=O)Nc1ccc(Nc2ccccc2)cc1OC [GSK0660] (first compound 0.8 µM, partner dose 1 µM) gave a cell count of 94.1%. Compound C=CCNC1=C2C[C@@H](C)C[C@H](OC)[C@H](O)[C@@H](C)/C=C(\C)[C@H](OC(N)=O)[C@@H](OC)/C=C\C=C(/C)C(=O)NC(=CC1=O)C2=O [Tanespimycin] + COC(=O)c1sccc1S(=O)(=O)Nc1ccc(Nc2ccccc2)cc1OC [GSK0660] (first compound 0.002 µM, partner dose 1 µM) has a cell count of 74.9%. C[C@@H](Oc1cc(-c2cnn(C3CCNCC3)c2)cnc1N)c1c(Cl)ccc(F)c1Cl [Crizotinib] + O=S(=O)(c1ccccc1)N(CC(F)(F)F)c1ccc(C(O)(C(F)(F)F)C(F)(F)F)cc1 [T0901317] (first compound 0.2 µM, partner dose 1.4 µM) showed a cell count of 87.9%. Work on C=CCNC1=C2C[C@@H](C)C[C@H](OC)[C@H](O)[C@@H](C)/C=C(\C)[C@H](OC(N)=O)[C@@H](OC)/C=C\C=C(/C)C(=O)NC(=CC1=O)C2=O [Tanespimycin] + CCCCCCCCCCCC1=C(O)C(=O)C=C(O)C1=O [Embelin] (first compound 0.002 µM, partner dose 1.2 µM) yielded a cell count of 97.8%. Compound CNC(=O)c1cc(Oc2ccc(NC(=O)Nc3ccc(Cl)c(C(F)(F)F)c3)cc2)ccn1 [sorafenib] + COC(=O)c1sccc1S(=O)(=O)Nc1ccc(Nc2ccccc2)cc1OC [GSK0660] (first compound 0.4 µM, partner dose 1 µM) has a cell count of 103%. Work on CNC(=O)c1cc(Oc2ccc(NC(=O)Nc3ccc(Cl)c(C(F)(F)F)c3)cc2)ccn1 [sorafenib] + CCN(CC)CCCCNc1ncc2cc(-c3cc(OC)cc(OC)c3)c(NC(=O)NC(C)(C)C)nc2n1 [PD173074] (first compound 0.4 µM, partner dose 0.1 µM) yielded a cell count of 93.8%. In the case of CN1CCN(c2ccc3nc(-c4c(N)c5c(F)cccc5[nH]c4=O)[nH]c3c2)CC1 [Dovitinib] + O=c1cc(-c2cccc3c2Sc2ccccc2S3)oc(N2CCOCC2)c1 [KU55933] (first compound 0.1 µM, partner dose 1 µM), the cell count is reported as 101%. For C=CCNC1=C2C[C@@H](C)C[C@H](OC)[C@H](O)[C@@H](C)/C=C(\C)[C@H](OC(N)=O)[C@@H](OC)/C=C\C=C(/C)C(=O)NC(=CC1=O)C2=O [Tanespimycin] + O=C1NC(=O)/C(=C/c2ccc(-c3ccc(F)cc3O)o2)S1 [AS252424] (first compound 0.002 µM, partner dose 1 µM), the cell count was 47.8%. C=CCNC1=C2C[C@@H](C)C[C@H](OC)[C@H](O)[C@@H](C)/C=C(\C)[C@H](OC(N)=O)[C@@H](OC)/C=C\C=C(/C)C(=O)NC(=CC1=O)C2=O [Tanespimycin] + O=C(O)C(=O)Nc1sc2c(c1C(=O)O)CCNC2 [TCS401] (first compound 0.002 µM, partner dose 1.66667 µM) was tested, and the cell count was 91.5%. In the case of C=CCNC1=C2C[C@@H](C)C[C@H](OC)[C@H](O)[C@@H](C)/C=C(\C)[C@H](OC(N)=O)[C@@H](OC)/C=C\C=C(/C)C(=O)NC(=CC1=O)C2=O [Tanespimycin] + COc1ccc2c(c1)CCC1C2CCC2(C)C(NCCCCCCN3C(=O)C=CC3=O)CCC12 [U73122] (first compound 0.002 µM, partner dose 0.4 µM), the cell count is reported as 95.8%. Work on CNC(=O)c1cc(Oc2ccc(NC(=O)Nc3ccc(Cl)c(C(F)(F)F)c3)cc2)ccn1 [sorafenib] + N#Cc1c(O)c2c(-c3ccc(-c4ccccc4O)cc3)csc2[nH]c1=O [A769662] (first compound 0.4 µM, partner dose 2 µM) yielded a cell count of 88%. In the case of CS(=O)(=O)CCNCc1ccc(-c2ccc3ncnc(Nc4ccc(OCc5cccc(F)c5)c(Cl)c4)c3c2)o1 [lapatinib] + Oc1cc(-c2nc(-c3ccccc3)[nH]c2-c2ccncc2)ccc1Cl [L779450] (first compound 0.8 µM, partner dose 0.2 µM), the cell count is reported as 95.3%. In the case of CN1CCN(c2ccc3nc(-c4c(N)c5c(F)cccc5[nH]c4=O)[nH]c3c2)CC1 [Dovitinib] + O=C(O)C(=O)Nc1sc2c(c1C(=O)O)CCNC2 [TCS401] (first compound 0.1 µM, partner dose 1.66667 µM), the cell count is reported as 71.2%. Work on C=CCNC1=C2C[C@@H](C)C[C@H](OC)[C@H](O)[C@@H](C)/C=C(\C)[C@H](OC(N)=O)[C@@H](OC)/C=C\C=C(/C)C(=O)NC(=CC1=O)C2=O [Tanespimycin] + COc1ccc(COc2ccc(Cc3cnc(N)nc3N)cc2OC)cc1 [GW2580] (first compound 0.002 µM, partner dose 1 µM) yielded a cell count of 77.5%. CNC(=O)c1cc(Oc2ccc(NC(=O)Nc3ccc(Cl)c(C(F)(F)F)c3)cc2)ccn1 [sorafenib] + COc1ccc(-c2ccc3c(N4CCOCC4)nc(N4C[C@@H](C)O[C@@H](C)C4)nc3n2)cc1CO [KU0063794] (first compound 0.4 µM, partner dose 0.02 µM) was tested, and the cell count was 101%. CNC(=O)c1cc(Oc2ccc(NC(=O)Nc3ccc(Cl)c(C(F)(F)F)c3)cc2)ccn1 [sorafenib] + COc1ccc2c(c1)CCC1C2CCC2(C)C(NCCCCCCN3C(=O)C=CC3=O)CCC12 [U73122] (first compound 0.4 µM, partner dose 0.4 µM) showed a cell count of 87.3%. With C[C@@H](Oc1cc(-c2cnn(C3CCNCC3)c2)cnc1N)c1c(Cl)ccc(F)c1Cl [Crizotinib] + O=c1cc(-c2cccc3c2Sc2ccccc2S3)oc(N2CCOCC2)c1 [KU55933] (first compound 0.2 µM, partner dose 1 µM) the cell count was 80.7%. For C[C@@H](Oc1cc(-c2cnn(C3CCNCC3)c2)cnc1N)c1c(Cl)ccc(F)c1Cl [Crizotinib] + COC(=O)c1sccc1S(=O)(=O)Nc1ccc(Nc2ccccc2)cc1OC [GSK0660] (first compound 0.2 µM, partner dose 1 µM), the cell count was 95.6%. For CS(=O)(=O)CCNCc1ccc(-c2ccc3ncnc(Nc4ccc(OCc5cccc(F)c5)c(Cl)c4)c3c2)o1 [lapatinib] + O=C(O)C(=O)Nc1sc2c(c1C(=O)O)CCNC2 [TCS401] (first compound 0.8 µM, partner dose 1.66667 µM), the cell count was 105%.
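Note: cell number obtained by counting DAPI-stained nuclei in high-throughput microscope images with image analysis software, screen run in 1,536-well plates.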
